± gives the standard deviation of the averaged measurements. Over roughly 33,000 sequences, “E-score (dimensionless, -0.5 to 0.5)” has its median near -0.049; the highest 2% begin near 0.37. This is one part of the list.
Each sequence was assayed on T1, PmTbr T-box DNA-binding domain (GST fusion) (assay: PBM E-score of 8-mer (E-score (dimensionless, -0.5 to 0.5)); Tbr is Tbrain of the sea star Patiria miniata (Pm) or the sea urchin Strongylocentrotus purpuratus (Sp); higher = stronger binding preference; most listed sequences are background and not binding sites). Conditions: the construct has about 5 more residues each side.
T1 sequence: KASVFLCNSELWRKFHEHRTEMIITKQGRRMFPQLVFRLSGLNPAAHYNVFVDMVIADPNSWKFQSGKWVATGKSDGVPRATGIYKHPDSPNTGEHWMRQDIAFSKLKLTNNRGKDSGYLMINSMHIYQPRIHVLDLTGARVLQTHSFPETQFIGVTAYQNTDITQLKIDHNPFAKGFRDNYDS
Procedure, shortened: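 Universal Agilent oligonucleotide arrays, made double-stranded by primer extension, were incubated with 200 nM GST-fused Tbr T-box DNA-binding domain in PBS (pH 7.5). The protein was expressed in BL21 E. coli at 20 °C and purified by glutathione affinity chromatography. After scanning and quantification, the Universal PBM Analysis Suite assigned an enrichment E-score to each ungapped 8-mer, averaged over duplicate arrays.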

| Sequence | PBM E-score of 8-mer |
| --- | --- |
| ACTTTTCA | 0.211 ± 0.055 |
| AGCACACG | -0.0163 ± 0.042 |
| AAAATAAC | 0.141 ± 0.037 |
| CACGTGAA | 0.176 ± 0.044 |
| CGGACATC | -0.286 ± 0.039 |
| CGCCGAAA | -0.0346 ± 0.031 |
| TATGGAAA | -0.0651 ± 0.021 |
| CAGGGTAA | -0.223 ± 0.0064 |
| CCTACTAG | 0.0677 ± 0.014 |
| CAGGATCA | -0.0925 ± 0.02 |
| CGCGGACC | 0.0878 ± 0.041 |
| AGTGGATC | -0.236 ± 0.0081 |
| ATATGGCG | -0.0702 ± 0.039 |
| GGTCAAGA | -0.151 ± 0.057 |
| AACATTCG | -0.197 ± 0.0051 |
| AATTACCG | 0.0948 ± 0.036 |
| GTTCAGAA | -0.0736 ± 0.1 |
| ACAGACCC | 0.0984 ± 0.0065 |
| TACCTGAA | -0.0946 ± 0.0015 |
| AACAAGAA | -0.105 ± 0.079 |
| AGTGGATG | -0.1874 ± 0.00053 |
| AAAGCCCG | -0.0284 ± 0.041 |
| CTGCGCGC | 0.0692 ± 0.036 |
| GTATTACA | -0.0394 ± 0.027 |
| AACTATCA | 0.136 ± 0.026 |

| Sequence | PBM E-score of 8-mer |
| --- | --- |
| CGGTGCCA | 0.195 ± 0.0034 |
| ACGGCCTA | -0.231 ± 0.014 |
| AAAGGTGG | 0.234 ± 0.084 |
| TCCGCGCA | -0.0129 ± 0.15 |
| AGATGGCA | 0.162 ± 0.057 |
| ACCTGAGC | -0.0282 ± 0.035 |
| ACGATTAA | -0.0817 ± 0.013 |
| ACTCAGAT | -0.0293 ± 0.074 |
| TCTATTCA | 0.0759 ± 0.049 |
| AGCGGTCA | -0.145 ± 0.11 |
| GGCTGACA | 0.26929 ± 0.00013 |
| CATTCGGC | -0.0828 ± 0.042 |
| CGTACATA | -0.0161 ± 0.02 |
| ACGAGAGG | 0.0873 ± 0.05 |
| TACTTCTA | -0.14 ± 0.025 |
| AATACAGA | 0.033 ± 0.0049 |
| ACCCGACT | 0.0457 ± 0.056 |
| GCGAATCC | 0.294 ± 0.021 |
| AAGCCGAG | -0.0365 ± 0.014 |
| GACGCGAC | 0.207 ± 0.015 |
| GTTTTGTA | -0.159 ± 0.056 |
| CTCCCTTC | -0.181 ± 0.14 |
| CTCTTGAC | 0.168 ± 0.027 |
| AACGGGTC | 0.0374 ± 0.029 |
| AGCAAGAT | 0.0164 ± 0.08 |

| Sequence | PBM E-score of 8-mer |
| --- | --- |
| AAGAGGCC | -0.234 ± 0.0038 |
| AGCGCCCT | 0.101 ± 0.026 |
| GTTCGTGA | 0.0809 ± 0.031 |
| AGTACGTA | -0.0277 ± 0.038 |
| CAAAGTGG | 0.0955 ± 0.052 |
| GTGACCGA | 0.0574 ± 0.029 |
| GACCGACC | -0.0482 ± 0.1 |
| GGTAGACC | -0.167 ± 0.028 |
| ACGAAGCG | -0.0233 ± 0.14 |
| CTTGCGCC | 0.0975 ± 0.042 |
| CAGGTCCA | -0.14 ± 0.0038 |
| ATCGACGA | -0.0605 ± 0.13 |
| CCGACTAC | -0.106 ± 0.024 |
| CACCACTG | 0.1882 ± 0.00029 |
| CTAGTGAA | 0.0741 ± 0.0051 |
| ATCCCCAC | 0.201 ± 0.017 |
| CCAGGGAC | -0.11 ± 0.0013 |
| ATGTCTTC | -0.0952 ± 0.012 |
| ACCCAAAC | 0.027 ± 0.033 |
| GCCATTCA | 0.104 ± 0.018 |
| AGCTGCGA | 0.292 ± 0.03 |
| GCTGATGA | 0.0826 ± 0.021 |
| ATTCTTTG | -0.109 ± 0.048 |
| ATTAAGGA | -0.159 ± 0.045 |
| CTCTAATC | -0.29 ± 0.038 |

| Sequence | PBM E-score of 8-mer |
| --- | --- |
| CACGAGTC | 0.0955 ± 0.0089 |
| GACCGGAC | 0.0558 ± 0.0036 |
| CAGCGGAG | 0.0331 ± 0.067 |
| ACCTTCGC | 0.246 ± 0.045 |
| CAACAGCA | 0.168 ± 0.04 |
| ATATTGAA | -0.172 ± 0.12 |
| AATCATAG | -0.1427 ± 0.0014 |
| CAAACGAG | -0.024 ± 0.024 |
| CAGAACAC | 0.0625 ± 0.017 |
| TAACTCTA | -0.103 ± 0.051 |
| GCGCTAGA | 0.209 ± 0.016 |
| TCGCTAGA | 0.152 ± 0.02 |
| TGGCTTAA | -0.353 ± 0.045 |
| AAGGTTCA | 0.0379 ± 0.076 |
| AGCACAGC | -0.137 ± 0.0099 |
| AAGAGTAT | -0.0661 ± 0.0086 |
| AGGCCGAC | -0.0587 ± 0.016 |
| TTGGCCAA | -0.108 ± 0.023 |
| CAAATCCC | 0.0413 ± 0.012 |
| CACAAGAC | 0.0761 ± 0.055 |
| AACAGGCT | -0.165 ± 0.019 |
| CATATCCA | 0.0671 ± 0.023 |
| CTGTCCGA | -0.253 ± 0.02 |
| ATGGATCA | -0.268 ± 0.042 |
| CCTGTGGC | -0.074 ± 0.037 |

| Sequence | PBM E-score of 8-mer |
| --- | --- |
| AAGCCTGG | -0.135 ± 0.045 |
| AGTTTTAA | 0.0281 ± 0.082 |
| AGGCTACG | -0.194 ± 0.0097 |
| GCGCGAAA | 0.4397 ± 0.0003 |
| ACCGAACG | -0.000335 ± 0.0076 |
| GCTCCCTA | -0.225 ± 0.056 |
| CCTAAACG | 0.0736 ± 0.0031 |
| GCTCGGAA | -0.22 ± 0.021 |
| GTAAAAAC | 0.022 ± 0.068 |
| AGCTGTGG | 0.0136 ± 0.075 |
| CTGTTTGA | -0.144 ± 0.048 |
| CGCTGTTC | -0.0409 ± 0.011 |
| GACTTCGC | 0.121 ± 0.0073 |
| CCCTAGAC | -0.152 ± 0.00088 |
| AGTCCCTG | -0.158 ± 0.023 |
| AATGTAGG | -0.228 ± 0.0062 |
| CTAATCCA | -0.0637 ± 0.017 |
| GAACTATC | -0.095 ± 0.022 |
| CAGAACCG | -0.0987 ± 0.021 |
| TAGCCCAA | -0.2 ± 0.0096 |
| CAACAAAC | 0.0469 ± 0.022 |
| GTGCACAC | 0.19 ± 0.017 |
| ACACTCTG | 0.2899 ± 0.00065 |
| ATAGCGCG | 0.268 ± 0.017 |
| CCGCCACC | 0.233 ± 0.076 |

| Sequence | PBM E-score of 8-mer |
| --- | --- |
| ACTCTGCG | 0.0927 ± 0.034 |
| GCTTCTCC | -0.24 ± 0.009 |
| TTCGCCAA | 0.115 ± 0.016 |
| CTGGTACC | -0.0542 ± 0.023 |
| CGTCAATA | 0.1 ± 0.028 |
| ATGCGGAC | -0.203 ± 0.02 |
| ACAGTGAC | 0.187 ± 0.034 |
| CATCGGCG | 0.109 ± 0.004 |
| ATTTGGCG | 0.221 ± 0.042 |
| AGACTCGA | -0.141 ± 0.058 |
| GGTACCAC | 0.106 ± 0.022 |
| ATAGTACC | -0.0148 ± 0.0029 |
| GCATAAGA | -0.195 ± 0.018 |
| CTCTGGAC | -0.173 ± 0.042 |
| CTCGGCTA | 0.0919 ± 0.061 |
| AATACCAC | 0.163 ± 0.0061 |
| ATTGCCAG | 0.132 ± 0.016 |
| AGCACTGC | 0.0402 ± 0.02 |
| AAGTCAGC | -0.141 ± 0.014 |
| ACTGTCCT | -0.205 ± 0.061 |
| AATTTCGG | 0.0486 ± 0.022 |
| AAATTTTG | -0.103 ± 0.082 |
| CAGAGCGG | -0.254 ± 0.057 |
| CCTGCCTA | -0.173 ± 0.05 |
| AGTTGTTG | 0.195 ± 0.0086 |

| Sequence | PBM E-score of 8-mer |
| --- | --- |
| ATATACTA | 0.14 ± 0.055 |
| CCCGTGTA | -0.229 ± 0.036 |
| TCAGTCGA | -0.0383 ± 0.035 |
| CCTGAGAA | -0.177 ± 0.044 |
| AAGAAACG | -0.191 ± 0.031 |
| GGCTACCC | -0.236 ± 0.033 |
| GGATCCGA | -0.166 ± 0.0055 |
| ATTATCTA | -0.156 ± 0.057 |
| AAAAAACA | -0.0435 ± 0.077 |
| ACCCGGAC | 0.0913 ± 0.022 |
| GTTATGCA | -0.00854 ± 0.022 |
| GACATGTC | 0.254 ± 0.033 |
| GAAGGCGA | 0.147 ± 0.0065 |
| ATCATACC | -0.142 ± 0.059 |
| AAAAGAGC | -0.125 ± 0.041 |
| CGTAACTA | -0.0993 ± 0.091 |
| ATGTAGGA | -0.0614 ± 0.031 |
| ATCGACAT | -0.0511 ± 0.09 |
| CGGTTTTC | -0.0777 ± 0.022 |
| AGTATATC | -0.0566 ± 0.022 |
| CGTTCGGC | -0.0976 ± 0.041 |
| CGCATTAC | 0.0561 ± 0.044 |
